Assay results as given in EP1196433B1, “CYCLIC PEPTIDE DERIVATIVES AS INHIBITORS OF INTEGRIN ALPHA v BETA 6” (Merck Patent GmbH, priority 1999, dated 2001).
Part of at least one peptide drawing is inferred or uncertain, most often the ends. Non-standard residues stand in square brackets, D forms with d. Residues, ends and D or L forms follow the SMILES beside them. AEEA = NCCOCCOCC(=O)O; βAla = NCCC(=O)O

Biological target: T1, αvβ6 Rezeptor (Homo sapiens, UniProt P06756+P18564)
T1 construct: Die Immobilisierung von löslichem αvβ6 Rezeptor auf Microtiterplatten
T1 sequence (P06756 31-992 limits assumed): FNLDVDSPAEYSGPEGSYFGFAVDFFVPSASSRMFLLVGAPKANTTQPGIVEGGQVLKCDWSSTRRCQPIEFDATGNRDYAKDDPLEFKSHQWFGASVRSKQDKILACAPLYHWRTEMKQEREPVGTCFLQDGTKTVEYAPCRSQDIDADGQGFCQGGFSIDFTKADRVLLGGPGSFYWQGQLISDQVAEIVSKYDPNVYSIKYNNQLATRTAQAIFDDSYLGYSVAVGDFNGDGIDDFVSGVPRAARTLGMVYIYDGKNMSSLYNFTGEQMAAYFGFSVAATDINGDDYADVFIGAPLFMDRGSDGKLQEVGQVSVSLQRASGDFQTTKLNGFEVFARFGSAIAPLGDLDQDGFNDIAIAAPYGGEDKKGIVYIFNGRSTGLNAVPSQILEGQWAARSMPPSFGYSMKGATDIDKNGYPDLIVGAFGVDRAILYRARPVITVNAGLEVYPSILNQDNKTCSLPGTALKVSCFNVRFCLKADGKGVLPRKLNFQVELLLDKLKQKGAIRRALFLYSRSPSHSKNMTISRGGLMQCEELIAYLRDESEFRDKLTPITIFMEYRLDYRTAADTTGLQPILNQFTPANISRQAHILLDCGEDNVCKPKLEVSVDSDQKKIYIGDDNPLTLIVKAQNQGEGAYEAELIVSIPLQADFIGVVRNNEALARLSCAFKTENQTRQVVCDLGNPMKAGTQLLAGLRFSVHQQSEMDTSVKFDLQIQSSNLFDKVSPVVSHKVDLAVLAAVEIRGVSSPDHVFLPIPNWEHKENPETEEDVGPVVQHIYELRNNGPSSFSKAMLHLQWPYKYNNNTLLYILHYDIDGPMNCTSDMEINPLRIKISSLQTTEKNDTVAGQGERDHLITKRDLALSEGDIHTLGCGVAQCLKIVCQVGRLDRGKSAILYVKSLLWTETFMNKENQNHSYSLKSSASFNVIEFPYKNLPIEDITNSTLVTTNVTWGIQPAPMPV
T1 sequence (P18564 22-709 limits assumed): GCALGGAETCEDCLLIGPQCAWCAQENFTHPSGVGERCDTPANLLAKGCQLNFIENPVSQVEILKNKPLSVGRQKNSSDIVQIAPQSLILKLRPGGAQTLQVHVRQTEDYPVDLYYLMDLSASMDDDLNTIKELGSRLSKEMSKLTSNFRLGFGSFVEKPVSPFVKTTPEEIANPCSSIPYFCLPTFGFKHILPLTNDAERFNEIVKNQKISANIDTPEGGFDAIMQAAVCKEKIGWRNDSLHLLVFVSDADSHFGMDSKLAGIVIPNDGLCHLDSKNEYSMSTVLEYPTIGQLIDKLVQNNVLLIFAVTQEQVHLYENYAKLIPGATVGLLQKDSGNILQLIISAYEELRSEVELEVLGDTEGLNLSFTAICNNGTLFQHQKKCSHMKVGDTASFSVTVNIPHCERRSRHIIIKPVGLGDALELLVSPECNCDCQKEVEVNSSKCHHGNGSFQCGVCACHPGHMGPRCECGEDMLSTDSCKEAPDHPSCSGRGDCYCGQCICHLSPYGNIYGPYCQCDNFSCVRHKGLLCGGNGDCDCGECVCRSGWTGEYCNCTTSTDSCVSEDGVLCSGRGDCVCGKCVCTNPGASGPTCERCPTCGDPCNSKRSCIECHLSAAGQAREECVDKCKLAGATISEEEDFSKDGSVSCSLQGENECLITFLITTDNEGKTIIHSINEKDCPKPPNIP
Assay: αvβ6 / fibronectin receptor binding test (competition of peptide with biotinylated fibronectin on immobilised integrin, ELISA read-out)
Conditions: for -log Q / Q (IC50[Substanz] / IC50[EMD 271293]): peptides Cyclo-(Arg-Gly-Asp-Leu-D-Asp-Ala-Leu-Arg-R^1), labelled by R^1; for -log Q: Q = IC50[Substanz] / IC50[EMD 271293]; for Q (IC50[Substanz] / IC50[EMD 271293]): ratio to comparison compound EMD 271293; for Q-Wert = IC50 Testpeptid / IC50 EMD 271293: standard Ac-RTDLDSLR-NH2, biotinylated fibronectin 2 µg/ml, Q values of repeated experiments averaged
Excerpt: αvβ6 / Fibronektin Rezeptorbindungstest:
Die hergestellten erfindungsgemäßen Peptide wurden in Lösung zusammen mit kompetetiv wirkenden Fibronektin an den immobiliserten αvβ6 Rezeptor gebunden und der Q-Wert als Maß für die Selektivität der Bindung des zu testenden Peptids an αvβ6 ermittelt. Der Q-Wert berechnet sich dabei aus dem Quotienten der IC50-Werte von Testpeptid und einem Standard. Als Standard diente das lineare Ac-RTDLDSLR-NH2 (Code EMD 271293) (Lit./Patent vgl Pytela et al. Science 231, 1559, (1986)). Der Bindungstest wurde im einzelnen wie folgt durchgeführt: • Die Immobilisierung von löslichem αvβ6 Rezeptor auf Microtiterplatten erfolgte durch Verdünnung der Proteinlösung in TBS++ und anschliessender Inkubation über Nacht bei 4°C (100 µl/Vertiefung). Unspezifische • Bindungsstellen wurden durch Inkubation (2 h, 37°C) mit 3% (w/v) BSA in TBS++ (200 µl/Vertiefung) blockiert. Überschüssiges BSA wurde durch dreimaliges Waschen mit TBSA++ entfernt. Peptide wurden seriell (1:10) in TBSA++ verdünnt und zusammen mit biotinyliertem Fibronektin (2 µg/ ml) mit dem immobilisierten Integrin inkubiert (50 µl Peptid + 50 µl Ligand pro Vertiefung; 2 h; 37°C). Nicht gebundenes Fibronektin und Peptide wurden durch dreimaliges Waschen mit TBSA++ entfernt. Die Detektion des gebundenen Fibronektin erfolgte durch Inkubation (1 h; 37 °C) mit einem alkalische-Phosphatase-gekoppelten anti-Biotin-Antikörper (Biorad) (1:20000 in TBSA++; 100 µl/Vertiefung). Nach dreimaligem Waschen mit TBSA++ erfolgte die kolorimetrische Detektion durch Inkubation (10-15 min; 25°C, im Dunkeln) mit Substratlösung (5 mg Nitrophenylphosphat, 1 ml Ethanolamin, 4 ml H2O; 100 µl/Vertiefung). Die Enzymreaktion wurde durch Zugabe von 0,4 M NaOH (100 µl/Vertiefung) gestoppt. Die Farbintensität wurde bei 405 nm im ELISA-Meßgerät bestimmt und gegen den Nullwert abgeglichen. Als Nullwert dienten Vertiefungen, die nicht mit Rezeptor beschichtet waren. Als Standard wurde Ac-RTDLDSLR-NH2 eingesetzt. Die IC50-Werte für die getesteten Peptide wurden aus einer Graphik abgelesen und daraus zusammen mit dem IC50-Wert des Standardpeptids der Q-Wert des erfindungsgemäßen Peptids ermittelt. Q-Wert = IC50 Testpeptid/IC50 Standard [formula] Q-Werte aus Versuchswiederholungen wurden gemittelt.

Structure (SMILES)	-log Q	Q (IC50[Substanz] / IC50[EMD 271293])	Q-Wert = IC50 Testpeptid / IC50 EMD 271293
CC(C)C[C@@H]1NC(=O)[C@H](C)NC(=O)[C@@H](CC(=O)O)NC(=O)[C@H](CC(C)C)NC(=O)[C@H](CC(=O)O)NC(=O)CNC(=O)[C@H](CCCNC(=N)N)NC(=O)[C@H](CCCNC(=N)N)NC1=O [EMD 271588, Cyclo-(Arg-Gly-Asp-Leu-D-Asp-Ala-Leu-Arg)] (cyclo(RGDL[dD]ALR))	-1,672	47	
CC(C)C[C@@H]1NC(=O)[C@H](C)NC(=O)[C@@H](CC(=O)O)NC(=O)[C@H](CC(C)C)NC(=O)[C@H](CC(=O)O)NC(=O)CNC(=O)[C@H](CCCNC(=N)N)NC(=O)COCCOCCNC(=O)[C@H](CCCNC(=N)N)NC1=O [EMD 272960, cyclo-(RGDLdALR-Aee)] (cyclo(RGDL[dD]ALR[AEEA]))	1,420	0,038	
CC(C)C[C@@H]1NC(=O)[C@H](CO)NC(=O)[C@H](CC(=O)O)NC(=O)[C@H](CC(C)C)NC(=O)[C@H](CC(=O)O)NC(=O)[C@H]([C@@H](C)O)NC(=O)[C@H](CCCNC(=N)N)NC(=O)[C@H](CCCNC(=N)N)NC1=O [compound 271312] (cyclo(DLDSLRRT))			8
CC(C)C[C@@H]1NC(=O)[C@H](CO)NC(=O)[C@@H](CC(=O)O)NC(=O)[C@H](CC(C)C)NC(=O)[C@H](CC(=O)O)NC(=O)[C@H]([C@@H](C)O)NC(=O)[C@H](CCCNC(=N)N)NC(=O)[C@H](CCCNC(=N)N)NC1=O [compound 271578] (cyclo(DL[dD]SLRRT))			104
CC(C)C[C@@H]1NC(=O)[C@H](C)NC(=O)[C@@H](CC(=O)O)NC(=O)[C@H](CC(C)C)NC(=O)[C@H](CC(=O)O)NC(=O)[C@H]([C@@H](C)O)NC(=O)[C@H](CCCNC(=N)N)NC(=O)[C@H](CCCNC(=N)N)NC1=O [compound 271579] (cyclo(ALRRTDL[dD]))			12
CC(C)C[C@@H]1NC(=O)[C@H](CC(=O)O)NC(=O)CNC(=O)[C@H](CCCNC(=N)N)NC(=O)[C@H](CCCNC(=N)N)NC(=O)[C@H](CC(C)C)NC(=O)[C@H](CO)NC(=O)[C@H](CC(=O)O)NC1=O [compound 271586] (cyclo(RGDLDSLR))			26
CC(C)C[C@@H]1NC(=O)[C@H](CO)NC(=O)[C@@H](CC(=O)O)NC(=O)[C@H](CC(C)C)NC(=O)[C@H](CC(=O)O)NC(=O)CNC(=O)[C@H](CCCNC(=N)N)NC(=O)[C@H](CCCNC(=N)N)NC1=O [compound 271587] (cyclo(RGDL[dD]SLR))			88
CC(C)C[C@@H]1NC(=O)[C@H](C)NC(=O)[C@@H](CC(=O)O)NC(=O)[C@H](CC(C)C)NC(=O)[C@H](CC(=O)O)NC(=O)CNC(=O)[C@H](CCCNC(=N)N)NC(=O)[C@H](CCCNC(=N)N)NC1=O [compound 271588] (cyclo(RGDL[dD]ALR))			47
CC(C)C[C@@H]1NC(=O)CNC(=O)[C@@H](CC(=O)O)NC(=O)[C@H](CC(C)C)NC(=O)[C@H](CC(=O)O)NC(=O)CNC(=O)[C@H](CCCNC(=N)N)NC(=O)[C@H](CCCNC(=N)N)NC1=O [compound 271589] (cyclo(RGDL[dD]GLR))			19
CC(C)C[C@@H]1NC(=O)CCNC(=O)[C@@H](CC(=O)O)NC(=O)[C@H](CC(C)C)NC(=O)[C@H](CC(=O)O)NC(=O)CNC(=O)[C@H](CCCNC(=N)N)NC(=O)[C@H](CCCNC(=N)N)NC1=O [compound 271590] (cyclo(RGDL[dD][βAla]LR))			233
CC(C)C[C@@H]1NC(=O)[C@H](C)NC(=O)[C@@H](CC(=O)O)NC(=O)[C@H](CC(C)C)NC(=O)[C@H](CC(=O)O)NC(=O)CNC(=O)[C@H](CCCNC(=N)N)NC(=O)COCCOCCNC(=O)[C@H](CCCNC(=N)N)NC1=O [compound 272960] (cyclo(RGDL[dD]ALR[AEEA]))			0,038
CC(C)C[C@@H]1NC(=O)CNC(=O)[C@@H](CC(=O)O)NC(=O)[C@H](CC(C)C)NC(=O)[C@H](CC(=O)O)NC(=O)CNC(=O)[C@H](CCCNC(=N)N)NC(=O)CNC(=O)CNC(=O)CNC(=O)[C@H](CCCNC(=N)N)NC1=O [compound 272963] (cyclo(RGDL[dD]GLRGGG))			0,084
CC(C)C[C@@H]1NC(=O)[C@H](C)NC(=O)[C@H](CC(=O)O)NC(=O)[C@H](CC(C)C)NC(=O)[C@H](CC(=O)O)NC(=O)CNC(=O)[C@H](CCCNC(=N)N)NC(=O)CNC(=O)CNC(=O)CNC(=O)[C@H](CCCNC(=N)N)NC1=O [compound 272964] (cyclo(RGDLDALRGGG))			0,037
CC(C)C[C@@H]1NC(=O)CNC(=O)[C@H](CC(=O)O)NC(=O)[C@H](CC(C)C)NC(=O)[C@H](CC(=O)O)NC(=O)CNC(=O)[C@H](CCCNC(=N)N)NC(=O)CNC(=O)CNC(=O)CNC(=O)[C@H](CCCNC(=N)N)NC1=O [compound 272965] (cyclo(RGDLDGLRGGG))			0,16
CC(C)C[C@@H]1NC(=O)[C@H](C)NC(=O)[C@@H](CC(=O)O)NC(=O)[C@H](CC(C)C)NC(=O)[C@H](CC(=O)O)NC(=O)[C@H]([C@@H](C)O)NC(=O)[C@H](CCCNC(=N)N)NC(=O)CNC(=O)CNC(=O)CNC(=O)[C@H](CCCNC(=N)N)NC1=O [compound 272966] (cyclo(ALRGGGRTDL[dD]))			0,05
CC(C)C[C@@H]1NC(=O)CNC(=O)[C@@H](CC(=O)O)NC(=O)[C@H](CC(C)C)NC(=O)[C@H](CC(=O)O)NC(=O)[C@H]([C@@H](C)O)NC(=O)[C@H](CCCNC(=N)N)NC(=O)CNC(=O)CNC(=O)CNC(=O)[C@H](CCCNC(=N)N)NC1=O [compound 272967] (cyclo(DL[dD]GLRGGGRT))			0,15
CC(C)C[C@@H]1NC(=O)[C@H](C)NC(=O)[C@H](CC(=O)O)NC(=O)[C@H](CC(C)C)NC(=O)[C@H](CC(=O)O)NC(=O)[C@H]([C@@H](C)O)NC(=O)[C@H](CCCNC(=N)N)NC(=O)CNC(=O)CNC(=O)CNC(=O)[C@H](CCCNC(=N)N)NC1=O [compound 272968] (cyclo(ALRGGGRTDLD))			0,14
CC(C)C[C@@H]1NC(=O)CNC(=O)[C@H](CC(=O)O)NC(=O)[C@H](CC(C)C)NC(=O)[C@H](CC(=O)O)NC(=O)[C@H]([C@@H](C)O)NC(=O)[C@H](CCCNC(=N)N)NC(=O)CNC(=O)CNC(=O)CNC(=O)[C@H](CCCNC(=N)N)NC1=O [compound 272969] (cyclo(DGLRGGGRTDL))			0,18
CC(C)C[C@@H]1NC(=O)[C@H](C)NC(=O)[C@H](CC(=O)O)NC(=O)[C@H](CC(C)C)NC(=O)[C@H](CC(=O)O)NC(=O)CNC(=O)[C@H](CCCNC(=N)N)NC(=O)CNC(=O)[C@H](CCCNC(=N)N)NC1=O [compound 272970] (cyclo(RGDLDALRG))			6,7
CC(C)C[C@@H]1NC(=O)[C@H](C)NC(=O)[C@@H](CC(=O)O)NC(=O)[C@H](CC(C)C)NC(=O)[C@H](CC(=O)O)NC(=O)[C@@H](C)NC(=O)[C@H](CCCNC(=N)N)NC(=O)CNC(=O)CNC(=O)CNC(=O)[C@H](CCCNC(=N)N)NC1=O [compound 272971] (cyclo(ALRGGGR[dA]DL[dD]))			8,2
